# Some of the results follow.
# B1: Q9UKT9 (peptide)
# chain: FGCEVCGADFTQKGNLLRHIKL
# B2: Q9UKT9 (peptide)
# chain: FSCNQCGAPFTQKGNLLRHIKL
# B3: Q9UKT9 (peptide)
# chain: FLCDVCGAGFTQKGNLLRHIKL
# B4: Q9UKT9 (peptide)
# chain: FGCEQCGARFTQKGNLLRHIKL
# B5: Q9UKT9 (peptide)
# chain: FICPVCGAKFTQKGNLLRHIKL
# B6: Q9UKT9 (peptide)
# chain: FHCEICGHLFTQKGNLLRHIKL
# B7: Q9UKT9 (peptide)
# chain: FHCNQCGREFTQKGNLLRHIKL
# B8: Q9UKT9 (peptide)
# chain: FDCDQCGAIFTQKGNLLRHIKL
# B9: Q9UKT9 (peptide)
# chain: LGCEICGFTCTQKGNLLRHIKL
# B10: Q9UKT9 (peptide)
# chain: FICEICGRMFTQKGNLLRHIKL
# B11: Q9UKT9 (peptide)
# chain: FFCNQCGAPFTQKGNLLRHIKL
# B12: Q9UKT9 (peptide)
# chain: FVCPICGRMFTQKGNLLRHIKL
# B13: Q9UKT9 (peptide)
# chain: FHCPVCGAWFTQKGNLLRHIKL
# B14: Q9UKT9 (peptide)
# chain: FKCNQCGAMFTQKGNLLRHIKL
# Biological target: no compound (DMSO)
# Assay: log2 fold change of degron read counts, EGFP-low vs EGFP+ sorted cells; higher = lower degron-EGFP level without compound (poor expression or instability)
# Details: compound: DMSO control; 18 h
# 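Further: jurkat cells carrying a lentiviral library of mutant zinc finger degrons fused to EGFP plus mCherry, mCherry+ cells FACS sorted, degron abundance counted by next-generation sequencing.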
row,Sequence,log2 fold change of degron read counts
1,B1,-1.85
2,B2,0.0681
3,B3,-2.55
4,B4,-2.19
5,B5,-1.06
6,B6,-0.4
7,B7,-0.464
8,B8,-0.658
9,B9,0.281
10,B10,-0.689
11,B11,0.89
12,B12,-0.105
13,B13,0.282
14,B14,-0.433

# Reference: the supplement of paper PMC12645437, “Orthogonal IMiD-Degron Pairs Induce Selective Protein Degradation in Cells” (ACS Chemical Biology, 2025)
